# In all, about 33,000 sequences were measured (“E-score (-0.5 to 0.5)”: median about -0.012, highest 2% from about 0.29 on). The list shows a part of the results.
# Target: T1, Ybr033w (UniProt P38073)
# T1 sequence: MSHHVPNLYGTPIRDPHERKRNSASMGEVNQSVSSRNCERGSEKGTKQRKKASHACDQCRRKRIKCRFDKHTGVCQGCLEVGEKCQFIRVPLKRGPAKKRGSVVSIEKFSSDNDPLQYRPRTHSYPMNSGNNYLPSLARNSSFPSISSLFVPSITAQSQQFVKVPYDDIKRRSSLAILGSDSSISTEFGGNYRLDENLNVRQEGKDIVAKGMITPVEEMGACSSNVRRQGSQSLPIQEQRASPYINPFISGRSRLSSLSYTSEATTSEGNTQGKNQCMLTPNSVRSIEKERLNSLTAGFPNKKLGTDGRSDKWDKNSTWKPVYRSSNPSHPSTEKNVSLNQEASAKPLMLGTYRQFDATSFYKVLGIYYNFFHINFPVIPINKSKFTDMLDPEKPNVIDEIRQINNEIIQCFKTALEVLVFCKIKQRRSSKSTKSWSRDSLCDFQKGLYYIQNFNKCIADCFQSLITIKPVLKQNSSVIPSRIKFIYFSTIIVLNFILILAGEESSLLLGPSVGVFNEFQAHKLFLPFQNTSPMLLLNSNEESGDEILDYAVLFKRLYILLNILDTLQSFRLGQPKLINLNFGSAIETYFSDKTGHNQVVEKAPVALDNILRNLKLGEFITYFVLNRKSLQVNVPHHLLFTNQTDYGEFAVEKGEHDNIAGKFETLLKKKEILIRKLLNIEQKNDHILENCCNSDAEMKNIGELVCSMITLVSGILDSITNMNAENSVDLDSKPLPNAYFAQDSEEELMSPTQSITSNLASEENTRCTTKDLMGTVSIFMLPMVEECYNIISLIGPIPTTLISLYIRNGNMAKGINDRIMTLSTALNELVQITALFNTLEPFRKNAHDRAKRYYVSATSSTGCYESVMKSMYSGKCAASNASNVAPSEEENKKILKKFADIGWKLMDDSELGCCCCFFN
# Experiment: PBM E-score (8-mer binding enrichment) (E-score (-0.5 to 0.5)); higher = stronger / more preferred TF binding; most listed sequences are background and not binding sites
# Conditions: protein concentration: 200 nM; construct: GST-full length
# Method in brief: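 Bound GST-tagged yeast transcription factors, applied at about 100-200 nM to double-stranded universal all-10-mer Agilent arrays, were detected with fluorescent anti-GST. Scans were normalised with masliner. A modified Wilcoxon-Mann-Whitney statistic, the E-score, was assigned to each ungapped eight-base word pooled with its reverse complement by the Universal PBM Analysis Suite.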
row,Sequence,PBM E-score
1,GATCGATA,0.0488
2,GGTACATA,0.074
3,GAAAACGC,0.0339
4,CCACAGAA,-0.0197
5,AACACGAT,0.0963
6,AATCGCAC,-0.128
7,ATTGGGTA,-0.00698
8,CTCATAGC,-0.113
9,ACTTGCCA,-0.00759
10,ATGTGAGG,-0.0879
11,GAATTTTA,0.295
12,AGGGGGAT,-0.4
13,ACTAGAAC,0.0607
14,GCAACTCA,0.0964
15,CCGGCGAC,-0.289
16,ACAATAAC,0.246
17,AGGGTTCC,-0.194
18,CTGAAGCA,-0.0699
19,ACAAAAGG,0.0138
20,CCGCATCC,-0.247
21,TAGCCTGA,-0.159
22,CTACCCAG,-0.033
23,CACTTAGG,-0.24
24,ATTATAGA,0.265
25,CAGGGGAG,-0.205

row,Sequence,PBM E-score
1,CTCTTCGC,-0.13
2,CGGTTACG,-0.168
3,GGCCCTTA,-0.239
4,ACGTAATA,0.164
5,ATTCTGCC,0.0257
6,AAGTTCTG,0.103
7,TAGCAGGA,-0.08
8,AATAGAAG,0.106
9,CAGAGACC,-0.252
10,GGGCGAAA,0.127
11,AACCTCGG,0.0447
12,GGTTAGAC,-0.0457
13,CTTAGAAA,0.138
14,CGCGCGGA,-0.00091
15,CTCGCCTC,-0.259
16,CTGGATAC,-0.107
17,CTGCTCGC,-0.0887
18,GGAATGCA,0.105
19,AGTTAGAT,0.18
20,AGAGACTG,-0.243
21,ACTCGCCA,-0.0174
22,ACCGAGCA,0.00152
23,ATCACCGC,-0.13
24,GTTTATCA,0.141
25,ACGCGTTA,-0.0212

row,Sequence,PBM E-score
1,ACGAGTTG,0.0676
2,CATCAGAA,0.101
3,AGGGCTGC,-0.358
4,GAAACCCC,-0.0402
5,ATTTCGGA,0.264
6,GTGTGTCA,0.209
7,GGGTTTGA,0.0772
8,GGACACGA,-0.263
9,AGTTCCCG,-0.192
10,AGCAAGAA,0.125
11,AACTAGGC,-0.0432
12,CGCTTCCG,-0.19
13,CAGTCCTA,-0.06
14,ACCGGACT,-0.0402
15,GAGCCAAC,-0.161
16,GAGTTGAC,-0.0171
17,CAGCGATG,-0.126
18,CTTTGCTC,-0.104
19,AAAGAGCC,-0.112
20,ATGGCCTG,-0.16
21,AGCTTAAG,0.0321
22,TAGCTGAA,0.111
23,GTCTGCAC,-0.164
24,ACGGTCCA,-0.201
25,CCCCGCTC,-0.346

row,Sequence,PBM E-score
1,GCTATATA,0.194
2,CGATCAAC,-0.144
3,ACCGCCCC,-0.158
4,ACATCACG,-0.0607
5,TACACTAA,0.0217
6,ATGAGATG,0.122
7,ACAGATGG,-0.0785
8,ACACGTGT,-0.0649
9,ATGGTCGA,0.137
10,AGGATGAC,-0.156
11,GAACGTCA,-0.222
12,CCGCCAGC,-0.172
13,GGAAGAGA,-0.0803
14,CGGTATTA,0.108
15,GATATGGC,-0.161
16,ATTTCATG,0.0772
17,ATTGAGTA,0.29
18,AGACAGAA,0.209
19,CTGTTGGA,0.0606
20,CGAAATGA,0.131
21,CAGAAGGC,-0.0891
22,CCGGGAGG,-0.208
23,GGAGACTA,0.0159
24,CTCCCTAC,-0.194
25,GGGCGCAC,-0.282

row,Sequence,PBM E-score
1,CGGATAAC,0.0679
2,GAACCGAC,-0.00873
3,CAGTATCC,0.0576
4,ATAAAATG,0.219
5,ACTCTGGC,-0.073
6,AATATTAC,0.283
7,CGTGGTCA,-0.173
8,AGCGGGAT,-0.086
9,AAGGACCA,-0.2
10,ATATCGCA,0.0731
11,ATAACAAT,0.165
12,TAAGGGGA,-0.129
13,ACCCCCAC,-0.458
14,ATCATCGG,-0.00717
15,GCGCGTTA,0.0464
16,AGCGTCAA,0.0946
17,AGAGTCAT,-0.209
18,ACTTCGAA,-0.0475
19,ATTGACGC,-0.0049
20,ATCCGCTC,-0.102
21,ATCGCCAT,-0.0752
22,GTCGCGTA,0.0648
23,AAACGCGA,0.0304
24,AAGCGAGT,0.167
25,ACTTATAG,0.0878

row,Sequence,PBM E-score
1,ATAAAGAC,0.0374
2,ATTAAAAG,0.223
3,GGATTACA,-0.0482
4,ACACACAC,0.0456
5,CGAGAATA,0.212
6,TGAGAACA,0.13
7,GAAGGGGC,-0.323
8,CGAAGTAC,0.0105
9,CATCTTGG,0.0844
10,CATCGGCA,-0.127
11,AGTGATAT,0.107
12,CAACGAAG,-0.0127
13,ATATGTTG,0.272
14,CTACCAAG,-0.0238
15,AGCGTACT,-0.111
16,AAGGCCAG,-0.105
17,GCAGTACA,-0.235
18,TACTTGAA,0.0775
19,AGGGCGGG,-0.164
20,AGACCAAT,0.0603
21,GTGAAGAA,0.0574
22,ATATCTCC,0.158
23,ATGGACAG,-0.0265
24,AGGTGCAA,0.0949
25,GTCGAGAA,0.0995

row,Sequence,PBM E-score
1,CCCCAAAG,-0.26
2,GGAAATCA,-0.0347
3,CCGGGAAG,-0.0608
4,AAGATCGC,-0.0697
5,CGATACAG,-0.17
6,CCAATTTC,0.173
7,AGAGTATG,0.0606
8,CAGTAGCC,-0.179
9,AAATCGCT,-0.173
10,AGGTTAAC,0.144
11,GAACGAAA,-0.00524
12,CATTGACG,0.0429
13,CCGTAGCA,-0.0749
14,ATAGAGTC,-0.172
15,ACCTTTGC,0.0369
16,GGTACTTA,-0.0033
17,CCAGTGGG,-0.297
18,ACACGTCC,-0.334
19,CCGTCCGA,-0.141
20,AACATGTC,0.133
21,GACAGACA,0.0604
22,ATTATCTG,0.218
23,ATTGCGGC,-0.152
24,AGTTTATC,0.363
25,CTTTGCCA,-0.167

row,Sequence,PBM E-score
1,CTGGAGGC,-0.043
2,CCCGGGAA,-0.133
3,AATTCTTA,0.146
4,CCATCGTA,0.0563
5,ATTCGGGA,0.0738
6,ACCGCAAA,0.135
7,AATAGAGG,-0.0249
8,AAGTTTGG,0.184
9,ATCTTACG,0.0253
10,CCGCCGAG,-0.0357
11,AACTGCGG,0.0628
12,CGACAACG,-0.0707
13,ATTAACGA,0.283
14,ACGCAATG,0.0098
15,CGGCCATA,-0.17
16,ATAGCACC,-0.0174
17,CGCCATAG,-0.227
18,CAGAGTCG,-0.191
19,CAGCATAG,-0.0334
20,ATGTAAAG,0.074
21,AGGTCTTA,-0.105
22,GAGACCTC,-0.0928
23,CACGGTGA,0.0391
24,CTCGGCGC,0.0178
25,ACCTCGCA,-0.136

row,Sequence,PBM E-score
1,AACAGCAA,0.238
2,CGCCAAGC,-0.295
3,ACACACGC,-0.0211
4,AACCGTGA,-0.093
5,CTTACCCC,-0.339
6,ACTTGTTG,0.0271
7,CTCAGAAA,0.0132
8,AAGAGACG,-0.0648
9,AGTACGCA,-0.0488
10,CGGCTCTA,-0.0755
11,CAGACTAA,-0.0508
12,AAGGAGTG,-0.00953
13,ATGTACCG,0.0208
14,ACCAATAT,0.261
15,AAGGAGGC,-0.226
16,ATAGAATA,0.248
17,CAAGACCA,-0.0729
18,CCCCCTCG,-0.32
19,GTCTGCTA,0.0776

# From the supplement of paper PMC3334620
